# The supplement of paper PMC6531468
# This is one part of the list. Read counts after selection give these values, which scatter widely. Each score is taken over the longer molecules that contain the sequence shown.
# Tests used:
# Assay in all cases: 6-mer SELEX enrichment z-score vs GST control; IMP3 is the RNA-binding protein IGF2BP3; higher = more enriched by binding
# IMP3 KH1-4 = conditions: construct: KH1-4 (164-579); SELEX round: R4
# Protocol: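 SELEX-seq with GST-tagged IMP3 KH1-4 (Pro164-Lys579) and an N40 RNA pool, round 4. 6-mer z-score of sequence-tag enrichment normalised to the corresponding GST SELEX round; RNA k-mers written as DNA (T for U).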
# IMP3 RRM1-2 = conditions: construct: RRM1-2 (1-163); SELEX round: R2
# Chain of IMP3 RRM1-2 (chain, as listed by the source): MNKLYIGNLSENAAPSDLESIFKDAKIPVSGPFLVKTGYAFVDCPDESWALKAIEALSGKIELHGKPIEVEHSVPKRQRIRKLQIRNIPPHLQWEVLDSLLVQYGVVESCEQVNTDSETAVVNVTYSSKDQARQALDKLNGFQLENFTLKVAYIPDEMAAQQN
# Protocol: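 SELEX-seq with GST-tagged IMP3 RRM1-2 (Met1-Asn163) and an N40 RNA pool, round 2. 6-mer enrichment z-score normalised to GST SELEX. RNA written as DNA (T = U).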
# IMP3 full-length = IMP3 full-length (UniProt O00425); conditions: construct: FL IMP3 (1-579); SELEX round: R4
# Chain of UniProt O00425 (O00425 whole entry): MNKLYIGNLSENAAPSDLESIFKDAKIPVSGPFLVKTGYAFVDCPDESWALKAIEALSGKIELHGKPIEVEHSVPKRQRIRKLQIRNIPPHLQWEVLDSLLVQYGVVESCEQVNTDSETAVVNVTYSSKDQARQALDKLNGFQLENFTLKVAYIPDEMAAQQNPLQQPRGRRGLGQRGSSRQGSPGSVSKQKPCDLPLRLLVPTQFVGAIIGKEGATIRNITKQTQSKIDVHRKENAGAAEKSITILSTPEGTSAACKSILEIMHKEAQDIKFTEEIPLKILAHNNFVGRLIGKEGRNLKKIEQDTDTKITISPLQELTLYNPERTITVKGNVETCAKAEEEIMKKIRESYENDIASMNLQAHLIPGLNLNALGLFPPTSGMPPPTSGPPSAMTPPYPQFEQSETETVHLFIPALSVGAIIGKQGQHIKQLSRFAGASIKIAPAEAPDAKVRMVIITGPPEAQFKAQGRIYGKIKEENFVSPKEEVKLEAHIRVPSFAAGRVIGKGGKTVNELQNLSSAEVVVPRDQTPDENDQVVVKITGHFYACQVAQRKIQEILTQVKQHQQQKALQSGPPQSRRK
# Protocol: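 SELEX-seq with GST-tagged full-length IMP3 and an N40 RNA pool, round 4. Each 6-mer is scored as an enrichment z-score of sequence tags containing it, normalised to the matching GST SELEX round. RNA written as DNA (T = U).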
# IMP3 KH1-2 = conditions: construct: KH1-2 (164-376); SELEX round: R4
# Chain of IMP3 KH1-2 (chain, as listed by the source): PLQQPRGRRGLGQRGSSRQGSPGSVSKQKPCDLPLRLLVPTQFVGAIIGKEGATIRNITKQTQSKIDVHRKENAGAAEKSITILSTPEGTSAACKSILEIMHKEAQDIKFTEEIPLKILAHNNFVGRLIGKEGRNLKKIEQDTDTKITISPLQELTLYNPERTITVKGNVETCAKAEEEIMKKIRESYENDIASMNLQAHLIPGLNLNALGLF
# Protocol: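 SELEX-seq with GST-tagged IMP3 KH1-2 (Pro164-Phe376) and an N40 RNA pool, round 4 (stringent 300/600 mM KCl washes). 6-mer z-score of sequence-tag enrichment normalised to the corresponding GST SELEX round; RNA k-mers written as DNA (T for U).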
# IMP3 KH3-4 = conditions: construct: KH3-4 (377-579); SELEX round: R4
# Chain of IMP3 KH3-4 (chain, as listed by the source): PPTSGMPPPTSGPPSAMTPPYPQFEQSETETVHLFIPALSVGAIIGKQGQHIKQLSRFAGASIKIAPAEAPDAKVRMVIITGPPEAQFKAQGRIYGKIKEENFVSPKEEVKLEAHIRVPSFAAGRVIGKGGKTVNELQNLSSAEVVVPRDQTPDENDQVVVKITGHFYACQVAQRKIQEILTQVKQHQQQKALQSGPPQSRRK
# Protocol: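 SELEX-seq with GST-tagged IMP3 KH3-4 (Pro377-Lys579) and an N40 RNA pool, round 4. 6-mer z-score of sequence-tag enrichment normalised to the corresponding GST SELEX round; RNA k-mers written as DNA (T for U).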
# Chain of IMP3 KH1-4 (chain, as listed by the source): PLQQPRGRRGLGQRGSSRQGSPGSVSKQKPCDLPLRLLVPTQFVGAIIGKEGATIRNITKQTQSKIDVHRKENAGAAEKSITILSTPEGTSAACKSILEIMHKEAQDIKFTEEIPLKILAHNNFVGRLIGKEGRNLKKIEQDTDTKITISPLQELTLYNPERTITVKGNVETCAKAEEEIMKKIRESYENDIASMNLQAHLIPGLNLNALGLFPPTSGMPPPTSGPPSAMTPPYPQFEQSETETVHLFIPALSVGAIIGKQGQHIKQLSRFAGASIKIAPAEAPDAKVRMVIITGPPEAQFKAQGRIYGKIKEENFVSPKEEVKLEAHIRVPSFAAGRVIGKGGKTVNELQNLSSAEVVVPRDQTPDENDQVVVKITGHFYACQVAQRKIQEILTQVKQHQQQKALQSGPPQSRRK
Sequence,6-mer SELEX enrichment z-score (IMP3 KH1-4),6-mer SELEX enrichment z-score (IMP3 RRM1-2),6-mer SELEX enrichment z-score (IMP3 full-length),6-mer SELEX enrichment z-score (IMP3 KH1-2),6-mer SELEX enrichment z-score (IMP3 KH3-4)
TCACGG,-0.048,0.53,0.909,-0.253,-0.208
AATAAG,0.894,-0.957,-0.374,0.813,1.92
AAGTAA,0.384,-1,-0.643,0.118,0.93
CTGCGC,-0.544,0.088,-0.041,-0.37,-0.637
TGTGTA,-0.18,0.016,-0.419,-0.26,0.019
CTGGTC,0.008,0.238,0.167,-0.016,-0.101
TTCTGT,0.732,0.416,0.337,0.664,0.549
TAGCCA,-0.309,-0.196,-0.31,-0.356,-0.36
CTCGAA,-2.12,-0.543,-1.27,-1.91,-1.89
GTTAGA,0.027,-0.079,-0.251,-0.127,0.088
CTTCGT,-0.272,0.307,-0.151,-0.241,-0.191
GAGGAC,0.545,-0.59,0.124,0.438,0.322
CTCTGC,-0.478,0.191,-0.101,-0.273,-0.551
ACGTAG,-1.39,-0.078,-0.782,-1.35,-1.27
TGCACT,0.683,0.27,0.344,0.503,0.33
CCATAT,1.41,0.449,0.591,1.28,1.14
CTACCC,-1.02,-0.606,-1.07,-1.1,-1.53
TTGCAA,0.375,0.015,-0.068,0.244,0.299
CCGTGG,-0.265,-0.199,0.037,-0.18,-0.424
TTAAAA,0.288,-1.32,-1.2,0.124,1.43

Sequence,6-mer SELEX enrichment z-score (IMP3 KH1-4),6-mer SELEX enrichment z-score (IMP3 RRM1-2),6-mer SELEX enrichment z-score (IMP3 full-length),6-mer SELEX enrichment z-score (IMP3 KH1-2),6-mer SELEX enrichment z-score (IMP3 KH3-4)
AGGCAC,1.88,0.883,2.59,1.18,1.73
TACGAG,-1.59,-0.415,-0.679,-1.49,-1.29
AACAAA,-0.093,-0.243,-0.842,0.449,1.06
TATGGA,0.887,-0.125,0.084,0.533,1.03
CCTTAA,-0.119,-0.512,-1.04,-0.19,-0.173
CCTACC,-1.35,-0.72,-1.38,-1.24,-1.71
CCCGTA,-0.671,-0.604,-0.539,-0.617,-0.948
GTAGCT,-0.741,0.247,-0.432,-0.576,-0.489
AAACCC,-3.24,-2.14,-3.46,-2.96,-3.87
TATGCT,0.465,0.079,0.03,0.372,0.528
ATTTCC,1.03,-0.039,-0.059,1.05,0.57
GCTTTC,0.259,0.375,0.305,0.361,0.284
GACCGT,-0.979,-0.84,-0.636,-0.904,-1.05
TTTCTC,0.563,0.511,0.312,0.653,0.442
GCTTTT,0.26,0.382,0.162,0.368,0.473
GATGAT,1.51,-0.523,-0.045,1.02,1.7
CTTCTG,0.22,0.254,0.062,0.313,0.038
TAACAT,2,0.794,1.22,2.04,2.38
GATTTC,0.294,0.076,-0.068,0.33,0.336
ACCCTT,-0.437,-0.35,-0.737,-0.512,-0.921

Sequence,6-mer SELEX enrichment z-score (IMP3 KH1-4),6-mer SELEX enrichment z-score (IMP3 RRM1-2),6-mer SELEX enrichment z-score (IMP3 full-length),6-mer SELEX enrichment z-score (IMP3 KH1-2),6-mer SELEX enrichment z-score (IMP3 KH3-4)
TAATTA,1.17,-0.222,0.048,1.1,2.16
GGGATT,0.474,0.049,0.283,0.478,0.696
TGCCAA,-0.811,-0.55,-0.847,-0.804,-1.04
AGTCGA,0.37,-0.201,0.355,0.127,0.3
CATCTA,0.815,0.655,0.782,0.438,0.313
GTCGCT,0.192,0.398,0.326,0.197,0.207
ATTCCT,1.03,0.092,0.087,0.955,0.609
CAATTC,0.815,0.956,1.08,0.813,0.361
ACAGAA,1.12,-0.022,1.07,1.64,1.46
TTCTCA,0.367,0.632,0.469,0.459,0.196
ATATGT,1.28,-0.026,0.2,0.887,1.49
AGACCT,-0.968,-1.02,-1.15,-0.909,-1.04
GTAAAG,-0.31,-0.821,-0.841,-0.48,0.029
CGGAGG,0.322,-0.334,0.42,0.435,0.25
GGAGGG,1.39,-0.048,0.679,1.71,1.29
CTCCTG,-0.661,-0.113,-0.629,-0.59,-0.796
AAGTTA,0.255,-0.237,-0.447,-0.033,0.301
CTTAGA,-0.126,-0.269,-0.368,-0.196,0.094
ACTTAC,0.592,0.003,-0.189,0.738,0.361
AGATTT,0.771,-0.152,-0.038,0.662,1.33
